Experimental data published in PMC4336329 (PLoS ONE, 2015).
In all, about 310,000 compounds went through this assay and about 14,000 (4.5%) showed an effect of 50% or more. The effect is printed as a negative number. The list shows a part of the results. Where a SMILES comes first, the peptide text is derived from it. [ ]: non-standard residue; d: D form. The star is where a group is joined. Phe(4-Me) = Cc1ccc(C[CH](N)C(=O)O)cc1; Bz = O=C(c1ccccc1)*

Target: human ether-à-go-go-related gene (hERG) potassium channel (human, UniProt Q12809)
Sequence (Q12809 whole entry, looked up): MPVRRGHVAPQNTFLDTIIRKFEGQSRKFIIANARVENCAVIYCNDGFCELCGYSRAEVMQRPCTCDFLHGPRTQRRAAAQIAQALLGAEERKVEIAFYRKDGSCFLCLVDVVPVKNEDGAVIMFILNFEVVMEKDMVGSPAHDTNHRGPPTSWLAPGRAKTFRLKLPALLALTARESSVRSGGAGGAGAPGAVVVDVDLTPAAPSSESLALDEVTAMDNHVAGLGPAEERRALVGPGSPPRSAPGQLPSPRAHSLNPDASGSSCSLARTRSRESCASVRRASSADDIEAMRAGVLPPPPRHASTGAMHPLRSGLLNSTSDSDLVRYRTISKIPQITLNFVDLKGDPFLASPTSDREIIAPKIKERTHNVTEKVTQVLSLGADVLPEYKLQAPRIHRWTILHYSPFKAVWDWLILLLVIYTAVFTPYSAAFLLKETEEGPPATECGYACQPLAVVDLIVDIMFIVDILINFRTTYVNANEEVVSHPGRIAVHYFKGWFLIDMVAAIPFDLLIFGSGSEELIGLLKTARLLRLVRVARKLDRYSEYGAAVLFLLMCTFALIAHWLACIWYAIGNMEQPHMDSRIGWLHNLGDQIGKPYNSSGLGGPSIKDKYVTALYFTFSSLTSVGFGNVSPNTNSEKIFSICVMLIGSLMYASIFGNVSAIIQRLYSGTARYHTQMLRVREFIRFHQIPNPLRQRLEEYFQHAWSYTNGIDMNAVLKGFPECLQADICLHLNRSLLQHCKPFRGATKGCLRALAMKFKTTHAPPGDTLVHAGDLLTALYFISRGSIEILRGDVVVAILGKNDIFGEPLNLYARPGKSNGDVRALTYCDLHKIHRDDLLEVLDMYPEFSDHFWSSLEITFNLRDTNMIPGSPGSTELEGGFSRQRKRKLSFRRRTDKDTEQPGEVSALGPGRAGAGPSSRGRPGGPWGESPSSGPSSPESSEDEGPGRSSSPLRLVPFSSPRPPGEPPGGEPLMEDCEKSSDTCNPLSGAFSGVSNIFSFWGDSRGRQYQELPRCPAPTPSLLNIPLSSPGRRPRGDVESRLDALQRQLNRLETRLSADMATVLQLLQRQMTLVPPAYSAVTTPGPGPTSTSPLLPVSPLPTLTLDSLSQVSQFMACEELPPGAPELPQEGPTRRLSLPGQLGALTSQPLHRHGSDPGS
Assay: primary screen, population patch clamp on CHO cells stably expressing hERG
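Further: peak tail current of the secondary pulse compared with the same well before compound.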

Point of comparison: `CCC(C(=O)OC)n1cnc2c(oc3ccccc32)c1=O` (stereo not drawn), “hERG current change (%, negative = inhibition) at 10uM” value 9.33%. Against it:
- COC(=O)c1c(-c2ccc(Br)cc2)csc1NC(=O)Cc1ccc(OC)c(OC)c1 — higher, 15.8%
- Cc1cccc(NC(=S)NNC(=O)c2cc3c(s2)CCC(C)C3)c1C (stereo not drawn) — lower, -20.3%
- CN=C1CC(C)(C)CC(=O)/C1=C(/O)CCC(=O)NC — higher, 10.5%
- CC(C)=CCc1c(O)ccc(C(=O)Cc2ccccc2)c1O — lower, -6.24%
- CCOC(=O)c1c(NC(C)=O)sc2c(OCC(O)CN(CC)CC)c(Br)ccc12 (stereo not drawn) — lower, -51.3%
- O=C(O)/C=C/c1ccc(O)c(O)c1 — higher, 13.1%
- COc1ccc(-n2c(=S)[nH]c3cc(C(=O)N4CCN(c5ccccc5)CC4)ccc3c2=O)cc1 — higher, 36.4%
- CCCn1nnc(NC(=S)NC(=O)/C=C/c2ccco2)n1 — higher, 10.8%
- COC(=O)c1ccc(NC(=O)C(=O)N2CCN(C(=S)Nc3ccc(OC)cc3)CC2)cc1 — lower, -0.865%
- COc1cc(C2c3c(c(C)c(C)oc3=O)Oc3c(C)c(C)oc(=O)c32)ccc1OS(=O)(=O)c1ccc(C)cc1 — lower, 3.48%
- CCOC(=O)C1(CCc2ccccc2)CCN(C(=O)CCc2cnn(C)c2)CC1 — lower, -51.2%
- O=C(CN1CCc2cc3c(cc2C1)OCCCO3)Nc1ccccc1 — lower, -4.56%
- O=S(=O)(Nc1nccs1)c1cnc(Cl)c(Br)c1 — higher, 11.5%
- Cn1c(C(=O)N2CCC3(CC2)OCCO3)cc2c(=O)n(C)c3ccccc3c21 — lower, -19%
- CCCC12CN(C(=O)c3ccco3)CC(CCC)(CN(C(=O)c3ccco3)C1)C2=O — lower, -0.22%
- O=C(Nc1ccc(CN2CCOCC2)cc1)c1ccc(-c2ccc(Br)cc2)o1 — lower, -16.1%
- CN(Cc1ccco1)C(=O)CN1C(=O)NC2(CCCCC2)C1=O — higher, 11.6%
- COc1cccc(NC(=O)CN(C)C(=O)/C=C/c2cn(Cc3ccccc3)nc2-c2cccnc2)c1 — lower, -59.4%
- COc1ccc(/C=C/C(=O)Nc2nc(N)n(-c3ccccc3)n2)cc1 — lower, -53%
- CC(=O)c1ccc(NC(=O)c2cccc(N3C(=O)c4ccccc4C3=O)c2)cc1 — lower, 8.32%
- CCC1CCCCN1CCCNC(=O)C1CCN(Cc2nc(-c3ccc(Cl)cc3)oc2C)CC1 (stereo not drawn) — lower, -42.2%
- Clc1nc(CN2CCCCC2)nc2sc3c(c12)CCC3 — lower, -33.6%
- C=CCN=C(CC)C1=C(O)CCCC1=O — higher, 11.2%
- Cc1cccc(NC(=O)C2(c3ccc([N+](=O)[O-])cc3)CCCC2)c1 — lower, -32.3%
- O=C(NCc1nnc(SCC(=O)N2CCCC2)o1)c1ccccc1F — higher, 11.8%
- O=C(NC(=S)Nc1ccc(S(=O)(=O)N2CCCC2)cc1)C1CC1 — lower, -29.8%
- NC(=O)CN1C(=O)NC2(CCCc3ccccc32)C1=O (stereo not drawn) — higher, 15.4%
- CCOc1cccc(C2NC(=S)NC(C)=C2C(=O)Nc2ccccc2)c1 (stereo not drawn) — lower, 2.98%
- CCOc1ccccc1C(=O)Nc1nnc(Cc2ccc(OC)c(OC)c2)s1 — higher, 15.2%
- O=C(O)c1cc([N+](=O)[O-])cc2c1nnn2O — higher, 9.83%
- CCOC(=O)c1cc(-c2ccccc2)nn1Cc1cc(C)no1 — lower, -4.06%
- CCOC(=O)c1ccc(Cn2c(-c3ccccc3)nnc2-c2ccccc2)o1 — lower, -7.29%
- CN(C(=O)c1ccc(NC(=O)Cc2cccc(NC(=O)C3CCN(C(=O)C4CCCC4)CC3)c2)cc1)C1CCCC1 — lower, 4.38%
- CN1CC(=O)NC1=NC(=O)c1cc(F)c(F)cc1Cl — higher, 10.1%
- Cc1ccc(NC(=O)CC2C(=O)N(Cc3ccccc3)C(=S)N2NC(=O)c2cccc(F)c2)c(C)c1 (stereo not drawn) — lower, -17.6%
- N#C/C(=C\c1ccc(OCC(N)=O)cc1)S(=O)(=O)c1ccccc1 — higher, 11.3%
- Cc1nnc(N2CCC(C(=O)NC3CCC(C)CC3)CC2)c2nn(-c3ccc(Cl)cc3)c(C)c12 (stereo not drawn) — higher, 18.8%
- COC(=O)CC1SCCNC1=O (stereo not drawn) — lower, 9.08%
- O=C(COc1ccccc1C(=O)c1cnn(-c2ccccc2)c1)Nc1ccc2ccccc2c1 — higher, 10.1%
- CN1C(=O)C(C)(C)c2cc(S(=O)(=O)N(C)Cc3ccccc3)ccc21 — lower, -2.33%
- COCCN1CCC(CNCc2cn(-c3cc(C)ccc3C)nc2-c2ccccc2)C1 (stereo not drawn) — lower, -18%
- COc1ccc(OC)c(/C=N/NC(=O)CC(=O)NC2CCCCC2)c1 — lower, 6.32%
- Cc1cc(O)c(/C=N/Nc2ccc(F)cc2)c(=O)o1 — lower, 8.69%
- NNC(=O)c1cc2ccccc2cc1O — lower, 3.78%
- Cc1cnc(C(=O)OCC(=O)Nc2cccc(S(=O)(=O)N3CCCCC3)c2)cn1 — lower, -1.78%
- Cc1ccc(C(=O)OCC(=O)NCCNC(=O)COC(=O)c2ccc(C)o2)o1 — higher, 22.4%
- Cc1cc(OCC[N+]2(C)CCCCC2)nc2ccccc12.[I-] — higher, 12.7%
- CCC(C)Oc1cccc(OCCCCN2C(=O)NC(C)(C)C2=O)c1 (stereo not drawn) — lower, -17.8%
- c1cncc(-c2nc(NCCCn3ccnc3)c3ccccc3n2)c1 — lower, -53.5%
- O=C(NCc1ccccc1Cl)c1ccc2nc[nH]c2c1 — lower, 5.08%
- CC(=O)Nc1ccc(S(=O)(=O)N(C)CC(=O)Nc2ccc(F)c(F)c2F)cc1 — lower, -6.17%
- Cc1ccc(COC(=O)c2cc(S(=O)(=O)N3CCOCC3)ccc2C)cc1 — lower, -2.75%
- CCc1ccc(/C=N/NC(=O)c2nnn(-c3nonc3N)c2CN2CCc3ccccc32)cc1 — higher, 10.3%
- Cc1ccccc1-c1ccnc2[nH]n(-c3ccccc3)c(=O)c12 — higher, 21%
- O=c1[nH]c(O)c(C=NCCc2ccccc2)c(=O)[nH]1 — higher, 16.2%
- Cc1ccc(CC(NC(=O)c2ccccc2)C(=O)N2CCCC2C(=O)O)cc1 (stereo not drawn) (Bz-[Phe(4-Me)]-Pro-OH; configuration not given here) — lower, -11.8%
- CCc1ccc(NC(=O)C(C)n2nc(C)c([N+](=O)[O-])c2C)cc1 (stereo not drawn) — lower, 9.14%
- Cn1c(N)c(S(=O)(=O)N2CCN(C(=O)c3ccco3)CC2)c(=O)n(C)c1=O — higher, 18.4%
- C/C(=C\COc1cc(=O)[nH]c2ccccc12)CCC(O)C(C)(C)O (stereo not drawn) — lower, 4.58%
